Results published in the supplement of paper PMC12423691.
This is one part of the list. Binding of human transcription factors and regulators to the viral nucleoprotein by AlphaScreen, crude cell-free proteins, amounts not normalised, one pass. Fold of the Venus control; higher = more signal. No active / inactive call. Single-pass screen; sequences are the whole Swiss-Prot entries looked up by name.

B1: ZNF232, Q9UNY5 (protein)
chain: MEPPGPVRGPLQDSSWYEPSAELVQTRMAVSLTAAETLALQGTQGQEKMMMMGPKEEEQSCEYETRLPGNHSTSQEIFRQRFRHLRYQETPGPREALSQLRVLCCEWLRPEKHTKEQILEFLVLEQFLTILPEELQSWVRGHHPKSGEEAVTVLEDLEKGLEPEPQVPGPAHGPAQEEPWEKKESLGAAQEALSIQLQPKETQPFPKSEQVYLHFLSVVTEDGPEPKDKGSLPQPPITEVESQVFSEKLATDTSTFEATSEGTLELQQRNPKAERLRWSPAQEESFRQMVVIHKEIPTGKKDHECSECGKTFIYNSHLVVHQRVHSGEKPYKCSDCGKTFKQSSNLGQHQRIHTGEKPFECNECGKAFRWGAHLVQHQRIHSGEKPYECNECGKAFSQSSYLSQHRRIHSGEKPFICKECGKAYGWCSELIRHRRVHARKEPSH
B2: PATZ1, Q9HBE1 (protein)
chain: MERVNDASCGPSGCYTYQVSRHSTEMLHNLNQQRKNGGRFCDVLLRVGDESFPAHRAVLAACSEYFESVFSAQLGDGGAADGGPADVGGATAAPGGGAGGSRELEMHTISSKVFGDILDFAYTSRIVVRLESFPELMTAAKFLLMRSVIEICQEVIKQSNVQILVPPARADIMLFRPPGTSDLGFPLDMTNGAALAANSNGIAGSMQPEEEAARAAGAAIAGQASLPVLPGVDRLPMVAGPLSPQLLTSPFPSVASSAPPLTGKRGRGRPRKANLLDSMFGSPGGLREAGILPCGLCGKVFTDANRLRQHEAQHGVTSLQLGYIDLPPPRLGENGLPISEDPDGPRKRSRTRKQVACEICGKIFRDVYHLNRHKLSHSGEKPYSCPVCGLRFKRKDRMSYHVRSHDGSVGKPYICQSCGKGFSRPDHLNGHIKQVHTSERPHKCQTCNASFATRDRLRSHLACHEDKVPCQVCGKYLRAAYMADHLKKHSEGPSNFCSICNRGFSSASYLKVHVKTHHGVPLPQVSRHQEPILNGGAAFHCARTYGNKEGQKCSHQDPIESSDSYGDLSDASDLKTPEKQSANGSFSCDMAVPKNKMESDGEKKYPCPECGSFFRSKSYLNKHIQKVHVRALGGPLGDLGPALGSPFSPQQNMSLLESFGFQIVQSAFASSLVDPEVDQQPMGPEGK
B3: XBP1, P17861 (protein)
chain: MVVVAAAPNPADGTPKVLLLSGQPASAAGAPAGQALPLMVPAQRGASPEAASGGLPQARKRQRLTHLSPEEKALRRKLKNRVAAQTARDRKKARMSELEQQVVDLEEENQKLLLENQLLREKTHGLVVENQELRQRLGMDALVAEEEAEAKGNEVRPVAGSAESAALRLRAPLQQVQAQLSPLQNISPWILAVLTLQIQSLISCWAFWTTWTQSCSSNALPQSLPAWRSSQRSTQKDPVPYQPPFLCQWGRHQPSWKPLMN
B4: CRTC3, Q6UUV7 (protein)
chain: MAASPGSGSANPRKFSEKIALHTQRQAEETRAFEQLMTDLTLSRVQFQKLQQLRLTQYHGGSLPNVSQLRSSASEFQPSFHQADNVRGTRHHGLVERPSRNRFHPLHRRSGDKPGRQFDGSAFGANYSSQPLDESWPRQQPPWKDEKHPGFRLTSALNRTNSDSALHTSALSTKPQDPYGGGGQSAWPAPYMGFCDGENNGHGEVASFPGPLKEENLLNVPKPLPKQLWETKEIQSLSGRPRSCDVGGGNAFPHNGQNLGLSPFLGTLNTGGSLPDLTNLHYSTPLPASLDTTDHHFGSMSVGNSVNNIPAAMTHLGIRSSSGLQSSRSNPSIQATLNKTVLSSSLNNHPQTSVPNASALHPSLRLFSLSNPSLSTTNLSGPSRRRQPPVSPLTLSPGPEAHQGFSRQLSSTSPLAPYPTSQMVSSDRSQLSFLPTEAQAQVSPPPPYPAPQELTQPLLQQPRAPEAPAQQPQAASSLPQSDFQLLPAQGSSLTNFFPDVGFDQQSMRPGPAFPQQVPLVQQGSRELQDSFHLRPSPYSNCGSLPNTILPEDSSTSLFKDLNSALAGLPEVSLNVDTPFPLEEELQIEPLSLDGLNMLSDSSMGLLDPSVEETFRADRL
B5: RORA, P35398 (protein)
chain: MESAPAAPDPAASEPGSSGADAAAGSRETPLNQESARKSEPPAPVRRQSYSSTSRGISVTKKTHTSQIEIIPCKICGDKSSGIHYGVITCEGCKGFFRRSQQSNATYSCPRQKNCLIDRTSRNRCQHCRLQKCLAVGMSRDAVKFGRMSKKQRDSLYAEVQKHRMQQQQRDHQQQPGEAEPLTPTYNISANGLTELHDDLSNYIDGHTPEGSKADSAVSSFYLDIQPSPDQSGLDINGIKPEPICDYTPASGFFPYCSFTNGETSPTVSMAELEHLAQNISKSHLETCQYLREELQQITWQTFLQEEIENYQNKQREVMWQLCAIKITEAIQYVVEFAKRIDGFMELCQNDQIVLLKAGSLEVVFIRMCRAFDSQNNTVYFDGKYASPDVFKSLGCEDFISFVFEFGKSLCSMHLTEDEIALFSAFVLMSADRSWLQEKVKIEKLQQKIQLALQHVLQKNHREDGILTKLICKVSTLRALCGRHTEKLMAFKAIYPDIVRLHFPPLYKELFTSEFEPAMQIDG
B6: MKX, Q8IYA7 (protein)
chain: MNTIVFNKLSGAVLFEDGGASERERGGRPYSGVLDSPHARPEVGIPDGPPLKDNLGLRHRRTGARQNGGKVRHKRQALQDMARPLKQWLYKHRDNPYPTKTEKILLALGSQMTLVQVSNWFANARRRLKNTVRQPDLSWALRIKLYNKYVQGNAERLSVSSDDSCSEDGENPPRTHMNEGGYNTPVHHPVIKSENSVIKAGVRPESRASEDYVAPPKYKSSLLNRYLNDSLRHVMATNTTMMGKTRQRNHSGSFSSNEFEEELVSPSSSETEGNFVYRTDTLENGSNKGESAANRKGPSKDDTYWKEINAAMALTNLAQGKDKLQGTTSCIIQKSSHIAEVKTVKVPLVQQF
B7: BTK, Q06187 (protein)
chain: MAAVILESIFLKRSQQKKKTSPLNFKKRLFLLTVHKLSYYEYDFERGRRGSKKGSIDVEKITCVETVVPEKNPPPERQIPRRGEESSEMEQISIIERFPYPFQVVYDEGPLYVFSPTEELRKRWIHQLKNVIRYNSDLVQKYHPCFWIDGQYLCCSQTAKNAMGCQILENRNGSLKPGSSHRKTKKPLPPTPEEDQILKKPLPPEPAAAPVSTSELKKVVALYDYMPMNANDLQLRKGDEYFILEESNLPWWRARDKNGQEGYIPSNYVTEAEDSIEMYEWYSKHMTRSQAEQLLKQEGKEGGFIVRDSSKAGKYTVSVFAKSTGDPQGVIRHYVVCSTPQSQYYLAEKHLFSTIPELINYHQHNSAGLISRLKYPVSQQNKNAPSTAGLGYGSWEIDPKDLTFLKELGTGQFGVVKYGKWRGQYDVAIKMIKEGSMSEDEFIEEAKVMMNLSHEKLVQLYGVCTKQRPIFIITEYMANGCLLNYLREMRHRFQTQQLLEMCKDVCEAMEYLESKQFLHRDLAARNCLVNDQGVVKVSDFGLSRYVLDDEYTSSVGSKFPVRWSPPEVLMYSKFSSKSDIWAFGVLMWEIYSLGKMPYERFTNSETAEHIAQGLRLYRPHLASEKVYTIMYSCWHEKADERPTFKILLSNILDVMDEES
B8: SCX, Q7RTU7 (protein)
chain: MSFATLRPAPPGRYLYPEVSPLSEDEDRGSDSSGSDEKPCRVHAARCGLQGARRRAGGRRAGGGGPGGRPGREPRQRHTANARERDRTNSVNTAFTALRTLIPTEPADRKLSKIETLRLASSYISHLGNVLLAGEACGDGQPCHSGPAFFHAARAGSPPPPPPPPPARDGENTQPKQICTFCLSNQRKLSKDRDRKTAIRS
B9: ZGLP1, P0C6A0 (protein)
chain: MEAEPIPDSSMPAKLLAPPCLNLERLGGSPSQEKPRTPGCCRISERSLWPACQESVTALCFLQETVERLGQSPAQDTPVLGPCWDPMALGTQGRLLLDRDSKDTQTRISQKGRRLQPPGTPSAPPQRRPRKQLNPCRGTERVDPGFEGVTLKFQIKPDSSLQIIPTYSLPCSSRSQESPADAVGGPAAHPGGTEAHSAGSEALEPRRCASCRTQRTPLWRDAEDGTPLCNACGIRYKKYGTRCSSCWLVPRKNVQPKRLCGRCGVSLDPIQEG
B10: FOXR2, Q6PJQ5 (protein)
chain: MDLKLKDCEFWYSLHGQVPGLLDWDMRNELFLPCTTDQCSLAEQILAKYRVGVMKPPEMPQKRRPSPDGDGPPCEPNLWMWVDPNILCPLGSQEAPKPSGKEDLTNISPFPQPPQKDEGSNCSEDKVVESLPSSSSEQSPLQKQGIHSPSDFELTEEEAEEPDDNSLQSPEMKCYQSQKLWQINNQEKSWQRPPLNCSHLIALALRNNPHCGLSVQEIYNFTRQHFPFFWTAPDGWKSTIHYNLCFLDSFEKVPDSLKDEDNARPRSCLWKLTKEGHRRFWEETRVLAFAQRERIQECMSQPELLTSLFDL
B11: ZHX3, Q9H4I2 (protein)
chain: MASKRKSTTPCMIPVKTVVLQDASMEAQPAETLPEGPQQDLPPEASAASSEAAQNPSSTDGSTLANGHRSTLDGYLYSCKYCDFRSHDMTQFVGHMNSEHTDFNKDPTFVCSGCSFLAKTPEGLSLHNATCHSGEASFVWNVAKPDNHVVVEQSIPESTSTPDLAGEPSAEGADGQAEIIITKTPIMKIMKGKAEAKKIHTLKENVPSQPVGEALPKLSTGEMEVREGDHSFINGAVPVSQASASSAKNPHAANGPLIGTVPVLPAGIAQFLSLQQQPPVHAQHHVHQPLPTAKALPKVMIPLSSIPTYNAAMDSNSFLKNSFHKFPYPTKAELCYLTVVTKYPEEQLKIWFTAQRLKQGISWSPEEIEDARKKMFNTVIQSVPQPTITVLNTPLVASAGNVQHLIQAALPGHVVGQPEGTGGGLLVTQPLMANGLQATSSPLPLTVTSVPKQPGVAPINTVCSNTTSAVKVVNAAQSLLTACPSITSQAFLDASIYKNKKSHEQLSALKGSFCRNQFPGQSEVEHLTKVTGLSTREVRKWFSDRRYHCRNLKGSRAMIPGDHSSIIIDSVPEVSFSPSSKVPEVTCIPTTATLATHPSAKRQSWHQTPDFTPTKYKERAPEQLRALESSFAQNPLPLDEELDRLRSETKMTRREIDSWFSERRKKVNAEETKKAEENASQEEEEAAEDEGGEEDLASELRVSGENGSLEMPSSHILAERKVSPIKINLKNLRVTEANGRNEIPGLGACDPEDDESNKLAEQLPGKVSCKKTAQQRHLLRQLFVQTQWPSNQDYDSIMAQTGLPRPEVVRWFGDSRYALKNGQLKWYEDYKRGNFPPGLLVIAPGNRELLQDYYMTHKMLYEEDLQNLCDKTQMSSQQVKQWFAEKMGEETRAVADTGSEDQGPGTGELTAVHKGMGDTYSEVSENSESWEPRVPEASSEPFDTSSPQAGRQLETD

target: nucleoprotein N of Crimean-Congo hemorrhagic fever virus; assay: AlphaScreen luminescence signal relative to Venus negative control (fold); higher = stronger binding to CCHFV N
Experimental: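 AlphaScreen binding of cell-free made, FLAG-GST-tagged human transcription factors and regulators (crude translation products) to biotinylated N protein; signal as fold of the FLAG-GST-Venus control. One pass.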

Row | Binder | AlphaScreen luminescence signal
1 | B1 | 1.26
2 | B2 | 1.95
3 | B3 | 3.67
4 | B4 | 1.26
5 | B5 | 2.33
6 | B6 | 2.14
7 | B7 | 3.58
8 | B8 | 2.84
9 | B9 | 1.72
10 | B10 | 2.14
11 | B11 | 1.12
